Screen size: about 360,000 compounds; about 17,000 (4.7%) were called active. The shares of active, inactive and inconclusive entries below differ from those in the screen. Cut-off read from the data, not from the text of the source: active = activity change below about -50%; inconclusive = mostly about -30% to -49%; inactive = weaker than that.
assay: qHTS for Inhibitors of Inflammasome Signaling: IL-1-beta AlphaLISA Primary Screen; conditions: THP-1 LPS/ATP IL-1B secretion, 16 h; at 57.5 µM, active compounds read low
How it was run: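 THP-1 cells pretreated 1 hr with compounds (up to 57.5 uM final), then stimulated with LPS (250 ng/mL final) plus ATP (1.25 mM final); secreted IL-1B measured by AlphaLISA after 16 hr, decreased signal indicating inhibition.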
% is set by controls: 0 for no effect and ±100 for the full control effect.

Activity change, active:
O=C(/C=C/c1ccc2ccccc2n1)N1CCN(S(=O)(=O)c2ccc(F)cc2)CC1 -89%
CCCCOc1ccc(CSC2=NCCN2)cc1[N+](=O)[O-] -99%
O=C(Nc1ccccc1-c1ccccc1)NC1CC2CCCC(C1)N2Cc1ccc(F)cc1 (centres undefined) -60.7%
CCN(CC)CCN(C(=O)CCS(=O)(=O)c1ccccc1)c1nc2cc(C)cc(C)c2s1 -102%
CCn1c(O)c(C2=c3ccccc3=NC2=O)c2cc(Br)ccc21 -64.2%
COc1cccc(NC(=O)CN2C(=O)CSc3ccc(S(=O)(=O)N4CCC(C)CC4)cc32)c1 -89%
Cc1c(NC(=O)C(=O)/C=C(\O)c2ccc(Cl)cc2)c(=O)n(-c2ccccc2)n1C -56.4%

Activity change, inactive:
COCCn1cnc2c1c(=O)[nH]c(=O)n2Cc1ccccc1 -10.4%
COc1ccc(Nc2nc(OC)nc(OC)n2)cc1 2.63%
Cc1cc(OCC(=O)Nc2ccccn2)c2c(C)c(C)c(=O)oc2c1 15.2%
O=C(O)COc1ccc(/C=C2\SC(=Nc3ccccc3)N(c3ccccc3)C2=O)cc1 -6.15%
COC(=O)Cc1[nH]nc2c1C(c1ccc(O)c(OC)c1)C(C#N)=C(N)O2 (centres undefined) -19%
COC(=O)c1ccc(/C=N/NC(=O)c2ccc3nc[nH]c3c2)cc1 -2.96%
Cc1nn(Cc2ccc(F)cc2)c2sc(C(=O)Nc3ccccc3N3CCOCC3)cc12 -16.5%
COc1ccc(C(=O)COC(=O)C(CCSC)NC(=O)COc2ccccc2)c(OC)c1 (centres undefined) 17.6%
CCOc1ccccc1CN1CCN(CCCc2ccccc2)CC1CCO (centres undefined) -27.8%
O=[N+]([O-])c1ccc2nc(-c3cccnc3)[nH]c2c1 -9.8%
O=[N+]([O-])c1csc2ccccc12 7.25%
COc1ccc(C(=O)O)cc1S(=O)(=O)NCc1ccccn1 -0.718%
CCCCn1c(N)c(N(CCC(C)C)C(=O)C2=NN(c3cc(C)ccc3C)C(=O)CC2)c(=O)[nH]c1=O -4.24%
COc1ccc(C23CC4CC(CC(C4)C2)C3)cc1C(=O)NCCN(C)C -12.6%
O=C(NCCN1CCOCC1)c1cccc(S(=O)(=O)Nc2ccc(Br)cc2)c1 49.5%

Activity change, inconclusive:
CCOc1ccc(S(=O)(=O)NCCC(=O)NCC(c2ccc(OC)cc2)N2CCOCC2)cc1 (centres undefined) -35.1%
CCc1nc2c(cnn2-c2ccc(Cl)cc2)c(=O)n1-c1ccc(OC)cc1 -31.3%
Cc1ccc(CNC(=O)c2ccc(Cn3cc(-c4ccc(C)cc4)nc3-c3ccncc3)cc2)cc1 -31%
CCn1cc(/C=C(\NC(=O)c2cc(OC)c(OC)c(OC)c2)C(=O)N2CCN(C)CC2)c2ccccc21 -33.2%
NC(=O)CC(NC(=O)Cc1ccc(Br)cc1)c1ccc(NC2CCCCCCC2)c([N+](=O)[O-])c1 (centres undefined) -42.2%
CCOc1ccccc1N1CCN(C(=O)c2ccc3[nH]c4c(c3c2)CCCC4)CC1 -43.4%
C=CCn1c(SCC(=O)/C(C#N)=C(\C)N)nc2sc(CC)cc2c1=O -39.1%
Cc1ccc(S(=O)(=O)Nc2ccc3c(c2)nc(CCN2CCOCC2)n3C)cc1 -37%
Cc1ccccc1Nc1nnc(SCC2CCCCO2)s1 (centres undefined) -32.4%
CC1(C)N=C(N)N=C(N)N1c1ccc(CCCCc2ccccc2)cc1 -34.7%
O=C(CCCl)N(Cc1nc2ccccc2c(=O)[nH]1)Cc1cccs1 -34.9%
O=C(/C=C/c1cc([N+](=O)[O-])ccc1OC(F)F)NCc1ccc(Cl)cc1 -36.8%
COc1ccccc1N1CCN(C(=O)C(Sc2ccccc2)c2ccccc2)CC1 (centres undefined) -31.4%
O=C(OCc1ccccc1)C1=[N+]([O-])OC(C(=O)OCc2ccccc2)C1c1c[nH]c2ccccc12 (centres undefined) -41.5%
COc1cccc(-c2ccc(C#N)c(OC(=O)c3c(Cl)cccc3Cl)n2)c1 -30.2%
Cc1ccccc1OCc1csc(N)n1 -34.3%
Cc1ccc(C)c(N2CCN(C(=O)c3ccccc3Br)CC2)c1 -47.7%
NS(=O)(=O)c1ccc(Nc2nc(-c3ccc(O)cc3)cs2)cc1 -32.6%
Cc1c(C(c2cc(O)ccc2O)c2c(C)n(C)n(-c3ccccc3)c2=O)c(=O)n(-c2ccccc2)n1C -32.2%
Cc1ccc(C(=O)O)cc1NC(=S)NC(=O)c1ccc(-c2ccc(Cl)cc2)o1 -42.9%
OC1CCN(c2c3c(nc4cc(-c5ccc(Cl)cc5)nn24)CCC3)CC1 -32.5%
O=C(Nc1ccc(N2CCN(C(=O)c3ccc(Cl)cc3)CC2)cc1)c1cccnc1 -36.3%
CCOc1ncccc1C(=O)Nc1cccc(C(=O)Nc2cccc(S(=O)(=O)CCO)c2)c1 -30.2%
CCCCCCSc1ccc(-c2nc3ccccn3c2NCCCC)cc1 -38.5%
Cc1ccc(-c2cc(C(F)F)nc(NCC3CCCO3)n2)cc1 (centres undefined) -32.1%
O=c1[nH][nH]c2c1[C@H](C1CCCC1)O[C@H](CCc1ccccc1)C2 -49.7%
CC(C)c1ccc(C2C3=C(CC(C)(C)CC3=O)NC3=C2C(=O)c2ccccc23)cc1 (centres undefined) -33.3%
Cn1c(-c2cc(Br)ccc2O)n[nH]c1=S -41.8%
Oc1ccc(C[C@H]2CNC(=S)N2CC2CCCN2C[C@H](Cc2ccccc2)N2C[C@H](Cc3ccc(O)cc3)N(CC3CCCCCC3)C2=S)cc1 (some centres undefined) -48.3%
O=c1ccc(-c2ccccc2)nn1Cc1ccccc1 -38.2%
COc1ccccc1Nc1nc(-c2ccc3c(c2)NC(=O)CO3)cs1 -41.5%
COc1ccc(C(=O)NC2CCCCCC2)cc1S(=O)(=O)N1CCCC1 -42%
